Among all 310,000 compounds or so, about 14,000 (4.5%) showed an effect of 50% or more. Effects have a minus sign here. The list shows a part of the results.
Target: human ether-à-go-go-related gene (hERG) potassium channel (human, UniProt Q12809)
Assay: primary screen, population patch clamp on CHO cells stably expressing hERG
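Also: peak tail current of the secondary pulse compared with the same well before compound.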

human ether-à-go-go-related gene (hERG) potassium channel, sequence (Q12809 whole entry, looked up): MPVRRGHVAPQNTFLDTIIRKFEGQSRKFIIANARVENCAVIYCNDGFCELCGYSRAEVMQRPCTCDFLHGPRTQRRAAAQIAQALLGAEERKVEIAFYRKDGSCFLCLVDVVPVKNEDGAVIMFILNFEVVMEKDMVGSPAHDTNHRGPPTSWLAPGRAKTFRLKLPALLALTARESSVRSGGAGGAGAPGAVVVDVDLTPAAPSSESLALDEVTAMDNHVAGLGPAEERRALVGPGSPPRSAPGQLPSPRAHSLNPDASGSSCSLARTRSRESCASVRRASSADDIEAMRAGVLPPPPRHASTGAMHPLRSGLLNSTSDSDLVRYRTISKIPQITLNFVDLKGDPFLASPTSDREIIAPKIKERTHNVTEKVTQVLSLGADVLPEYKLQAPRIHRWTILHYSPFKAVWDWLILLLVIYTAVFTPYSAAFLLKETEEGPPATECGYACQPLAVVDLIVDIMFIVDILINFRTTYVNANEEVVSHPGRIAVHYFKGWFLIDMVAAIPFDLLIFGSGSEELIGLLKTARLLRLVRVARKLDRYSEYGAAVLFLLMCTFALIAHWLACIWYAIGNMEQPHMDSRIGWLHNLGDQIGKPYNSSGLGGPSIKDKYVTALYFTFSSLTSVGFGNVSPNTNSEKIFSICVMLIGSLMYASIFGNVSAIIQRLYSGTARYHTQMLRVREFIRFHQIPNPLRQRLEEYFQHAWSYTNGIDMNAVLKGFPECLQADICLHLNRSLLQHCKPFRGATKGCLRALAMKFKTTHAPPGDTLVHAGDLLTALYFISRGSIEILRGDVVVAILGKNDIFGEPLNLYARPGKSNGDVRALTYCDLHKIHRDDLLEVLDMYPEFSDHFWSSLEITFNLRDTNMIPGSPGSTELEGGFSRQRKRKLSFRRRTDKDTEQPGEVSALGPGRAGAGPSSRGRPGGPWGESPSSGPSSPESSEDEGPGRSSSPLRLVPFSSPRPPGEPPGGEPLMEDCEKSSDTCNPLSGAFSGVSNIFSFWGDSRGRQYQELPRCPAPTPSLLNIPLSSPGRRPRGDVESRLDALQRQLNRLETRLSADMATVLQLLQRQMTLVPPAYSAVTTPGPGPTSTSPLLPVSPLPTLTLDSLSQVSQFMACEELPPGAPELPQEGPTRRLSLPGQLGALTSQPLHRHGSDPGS

| Structure (SMILES) | hERG current change (%, negative = inhibition) at 10uM [%] |
| --- | --- |
| CC12CN(C(=O)c3ccc([N+](=O)[O-])cc3)CC(C)(CN(C(=O)c3ccc([N+](=O)[O-])cc3)C1)C2=O | -3.28 |
| CCn1cc(C(=O)O)c(=O)c2cc(F)c(N3CCN(C(=S)NC(=O)c4cccc(C)c4)CC3)cc21 | -9.09 |
| C=CCSc1cc(C)nc2c(-c3ccccc3)cnn12 | 12.4 |
| CC(=O)Nc1ccc(NC(=O)Cn2c(-c3ccc(F)cc3)cnc2SCC(=O)Nc2c(C)cccc2C)cc1 | 8.24 |
| Cc1ccc(NC(=O)CCn2cnc3cc(C)c(C)cc32)cc1 | -8.26 |
| O=C(c1ccccc1)c1ccncc1 | -2.74 |
| C=C(C)Cc1c(C)c(C#N)c2nc3ccccc3n2c1N1CCCCC1 | 5.89 |
| C=CCn1c(=O)c(C(=O)Nc2ncccc2O)c(O)c2ccccc21 | 4.9 |
| CCN(Cc1nc2ccccc2c(=O)[nH]1)Cc1cc(=O)oc2cc(OC)ccc12 | -51.1 |
| O=C(Oc1ccc2c(=O)c(Oc3ccc4ccccc4c3)coc2c1)c1ccco1 | -3.89 |
| CN(Cc1ccccc1)S(=O)(=O)c1ccc(Cl)c(C(=O)O)c1 | 9.33 |
| N=C1/C(=C\c2ccc(OC(=O)c3ccc(F)cc3)cc2)C(=O)N=C2SC(N3CCCC3)=NN12 | 7.96 |
| Cc1cc2ccccc2nc1SCC(=O)NC1CCCC1 | -7.01 |
| Cn1cc2cc([N+](=O)[O-])ccc2n1 | -5.35 |
| CN(C[C@H](Cc1ccccc1)N(CCN(CCc1ccccc1)N=O)N=O)N=O.[Na+] | -17.7 |
| CN(C)S(=O)(=O)N1CCC(Oc2cccc(C(=O)N3CCCCCC3)c2)CC1 | 0.0377 |
| CC[n+]1c(C)sc2cc(OC)ccc21.[I-] | 31.4 |
| Cc1cccc(NC(=O)Nc2ccc(C)cc2Br)c1 | 20.5 |
| Cn1c(SCC(=O)c2cc3ccccc3o2)nnc1-c1ccccc1 | -16.1 |
| Cc1ccc(N2C(=O)C3CC3C2=O)cc1 (stereo not shown) | -1.25 |
| CC(=O)Nc1ccc(C)cc1NC(C)=O | 24.3 |
| CC1CCN(C(=O)CSc2nc(N)cc(N)n2)CC1 | -4.5 |

| Structure (SMILES) | hERG current change (%, negative = inhibition) at 10uM [%] |
| --- | --- |
| Cc1cc(-c2ccc(C)c(S(=O)(=O)Nc3ccc(S(N)(=O)=O)cc3)c2)on1 | 5.12 |
| COCCn1c(SCC(=O)Nc2sc(C)c(C)c2C#N)nnc1C(C)C | -3.62 |
| O=c1[nH]c(Cc2ccc(F)cc2)nc2scc(-c3ccc(F)cc3)c12 | 25.6 |
| Cc1cc(C)n2nc3nc(N4CCCC4)nc(-c4ccccc4)c3c2n1 | 7.37 |
| NC(=O)C1(N2CCCCC2)CCN(C(=O)c2cccs2)CC1 | 5.87 |
| O=C(COC(=O)CCc1ccccc1)NCc1ccccc1 | 11 |
| CC(=O)c1ccc(NC(=O)C(C)n2c3ccccc3c3nc(=O)cc(C)n32)cc1 (stereo not shown) | -9.3 |
| C/C(=N\NC(=O)c1nn(C)c(C)c1Br)c1ccc(NC(=O)c2ccc(C)s2)cc1 | -1.3 |
| CC1(C)C(C=C(Cl)Cl)C1C(=O)Nc1ccc([N+](=O)[O-])cc1 (stereo not shown) | 18.9 |
| CC(=O)/C(=N/Nc1ccccc1C)N1CCOCC1.Cl | 4.07 |
| O=C(CSc1ncn[nH]1)NN(c1ccccc1)c1ccccc1 | -4.47 |
| CSc1ccccc1NC(=O)CN1CCCCC1C (stereo not shown) | 0.324 |
| O=C(CCn1c2c(c3ccccc31)CCCC2)NNC(=O)c1ccccc1Cl | 3.1 |
| COc1ccc(C)cc1NC(=O)C(OC(=O)c1ccc(Cl)c(S(=O)(=O)N(C)c2ccccc2)c1)c1ccccc1 (stereo not shown) | -0.711 |
| FC(F)(F)c1ccc(-n2ccnc2)nc1 | -5.26 |
| Cc1cccc(-c2nc3ccccc3c(=O)n2-n2cccc2)c1 | -34.6 |
| CCN(CC(=O)Nc1ccccc1C(F)(F)F)C(=O)CCS(=O)(=O)c1ccc(C)cc1 | 10 |
| CCOC(=O)C1=C(CN2CCSCC2)NC(=O)NC1c1cc(C)ccc1C (stereo not shown) | -2.22 |
| CCN(CC)S(=O)(=O)c1cccc(NC(=O)CCNC(=O)c2ccccc2Cl)c1 | -22.6 |
| CN(C)C=NC(=O)c1cn(-c2ccc(F)cc2)c(=O)c2ccccc12 | 15.1 |
| Cc1ccc(Nc2nc3ccccc3n3cnnc23)cc1Cl | 12.1 |
| COc1ccc(/C=N/N2CCN(Cc3ccccc3)CC2)cc1 | -2.63 |

| Structure (SMILES) | hERG current change (%, negative = inhibition) at 10uM [%] |
| --- | --- |
| Cc1ccc(-c2nc(NC(=O)c3nn(C)cc3[N+](=O)[O-])sc2C)cc1 | -11.7 |
| COc1cccc(-n2c(SCC(=O)N3CCOCC3)nnc2-c2c[nH]c3ccccc23)c1 | 5.14 |
| CCN1C(=O)N(C)C2(c3ccccc3)N(C)C(=O)N(C)C12c1ccccc1 (stereo not shown) | 2.96 |
| COc1ccc(CCNC(=O)C2CC3Cn4c(nc5cc(Cl)c(Cl)cc54)C3N2C)cc1 (stereo not shown) | -23.5 |
| COc1ccc(C2=Nn3c(nnc3-c3ccco3)SC2)cc1OC | -54.1 |
| CCOC(=O)N1CCN(C(=O)c2nc3ccccc3s2)CC1 | -0.815 |
| Cc1ccc(C(c2nnnn2Cc2ccccc2)N2CC=C(c3ccc(F)cc3)CC2)cc1 (stereo not shown) | 11.5 |
| O=[N+]([O-])c1nn(-c2ccc3c(c2)OCCO3)n(O)c1=NC1CCN(Cc2ccccc2)CC1 | -17.8 |
| COc1ccc(/C=C/CN2CCN(Cc3ccc(F)cc3)C(CCO)C2)cc1 (stereo not shown) | -58.5 |
| Cc1nn(C)cc1CNC(=O)Nc1ccc(Br)cc1Cl | -22.2 |
| Cc1ccc(/C=N/NC(=O)CNC(=O)Cc2ccccc2)o1 | 4.78 |
| CCCS(=O)(=O)N1CCCC(C(=O)Oc2ccc(Cl)cc2)C1 (stereo not shown) | 14.5 |
| Br.CCOC(=O)c1ccc(N=c2scc(C)n2CC)cc1 | 14.6 |
| CCN(CC)C(=O)CSc1nc2c(sc(=S)n2-c2ccc(C)cc2C)c(=O)[nH]1 | 18.1 |
| COc1ccc(OC)c(-c2c[n+](=O)c3c(n2[O-])CCCC3)c1 | 16.5 |
| CNC(=O)c1cc(S(=O)(=O)Nc2ccc3c(c2)OCO3)ccc1C | 4.42 |
| COc1cc(C2C(C(=O)OC(C)C)=C(C)Nc3[nH]c(=O)[nH]c(=O)c32)ccc1O (stereo not shown) | 2.88 |
| CCCn1c(SCC(=O)Nc2ccc(OC)cc2)nnc1-c1ccncc1 | -0.0475 |
| COc1ccc(C(=O)CCC(=O)NCCc2ccccc2F)cc1 | -1.94 |
| CN(C(=S)NC(=O)c1ccc(Cl)cc1)C1CCCCC1 | 18.4 |
| O=c1[nH]cnc2c1sc1nc3c(c(-c4ccc(Cl)cc4)c12)CCC3 | -0.313 |
| O=C(CN1C(=O)NC(c2ccccc2)(c2ccccc2)C1=O)N1CCOCC1 | 0.969 |

| Structure (SMILES) | hERG current change (%, negative = inhibition) at 10uM [%] |
| --- | --- |
| Cc1ccc(NC(=S)N/N=C2/CCCCc3ccccc32)cc1 | -3.99 |
| CCN(CC)CCOC(c1ccccc1)c1ccc(C)cc1.Cl (stereo not shown) | -73 |
| CC1SC(C)C(=O)N(CC(=O)NCc2ccc(F)cc2)C1=O (stereo not shown) | -2.24 |
| COc1cc(O)c(C(CCN2CCCCC2)c2ccc(N(C)C)cc2)c(OC)c1 (stereo not shown) | -8.43 |
| Nc1n[nH]c(-c2ccccc2[N+](=O)[O-])n1 | 20.2 |
| CC1=C(C(=O)OC2CCCC2)C(c2coc3ccccc3c2=O)C2=C(CC(C)(C)CC2=O)N1 (stereo not shown) | -38.6 |
| COCCCNC(CC(=O)Nc1ccc(OC)cc1OC)C(=O)O (stereo not shown) | 5.01 |
| CC1CCN(c2ccc(S(=O)(=O)Nc3cc(C(=O)O)cc(C(=O)O)c3)cc2[N+](=O)[O-])CC1 | -0.817 |
| COc1ccc(N2CCN(C(=O)COC(=O)c3ccco3)CC2)cc1 | 2.51 |
| O=C(NCCc1ccccc1)C(NS(=O)(=O)c1cccc2nsnc12)c1ccccc1 (stereo not shown) | -25.4 |
| Cn1ncc(Br)c1NC(=O)Nc1ccccc1 | 17.5 |
| CN1CCN(NC(=S)Nc2ccc(OC(F)F)cc2)CC1 | -33.9 |
| O=C(Nc1ncn[nH]1)c1cc(S(=O)(=O)Nc2cccc(C(F)(F)F)c2)ccc1Cl | 17.8 |
| C=CCNC(=O)CC1C(=O)NCCN1Cc1c(F)cccc1Cl (stereo not shown) | 14.2 |
| Cc1ccc(NC(=O)c2c(C(F)(F)F)nn(C)c2SCc2cccc(C(F)(F)F)c2)cc1C | -2.8 |
| COc1ccc(-n2c(/C=C(\C)O)nc(=O)c3c(C)cc(C)nc32)cc1 | 2.38 |
| OC(COc1ccc2ccccc2c1)CN1CCCC1 (stereo not shown) | -19.1 |
| CCCNC(=O)COC(=O)c1ccc(-c2ccccc2)cc1 | 9.43 |
| Cc1c2ccccc2nc2ccccc12 | -1.84 |
| COc1cccc(NC(=O)CN(C)C(=O)c2cc(S(=O)(=O)N3CCCCC3)ccc2Cl)c1 | -34.7 |
| COc1cccc(C(=O)NCc2nnc(SCC(=O)Nc3nccs3)n2-c2ccccc2)c1 | -4.43 |
| Br.COc1ccc(-c2csc(Nc3ccc(S(N)(=O)=O)cc3)n2)cc1OC | 25.5 |

From PMC4336329 (PLoS ONE, 2015)
